Assay results from the RNAGym collection of RNA variant scans (doi:10.7554/elife.90254).
Read counts are not given, so values of variants with three or more changes are uncertain.

B1: LINE1-mini (parent)
chain: GGCAGAGCUCAACACAGCGUGGCAAAGUGGCUGUGGCUAGACUGCC

Variants of: B1
Experiment: self-cleavage, relative activity (ratio to wild type); higher = more cleavage; in vitro, sequencing; the parent is a self-cleaving ribozyme

Variant	self-cleavage
G2C C18A A41U	0.02
G2C C18A C42A	0.04
G2C C18A G21C G29U C31A G35C C37U	0.01
G2C C18A G21U U38A G40A	0.01
G2C C18A U20A G30U	0.12
G2C C18A U20C	0.02
G2C C18A U43C	0.03
G2C C18G C23A A25U U28C U43A G44A	0.24
G2C C18G G22U C23A	0.03
G2C C18G G27U C31A U34C	0.04
G2C C18G G29C	0.16
G2C C18G G36U G44A	0.21
G2C C18U A39U	0.04
G2C C18U C31A	0.04
G2C C18U G19C	0.02
G2C C18U U20A	0.09
G2C C23A A39C A41U	0.11
G2C C23G A25G A39C	0.02
G2C C23U A25G	0.06
G2C C23U A26U	0.15
G2C C23U C31U	0.11
G2C C23U G27A C37A C46A	0.03
G2C C23U G35A	0.08
G2C C23U U38A	0.44

Variant	self-cleavage
G2C C31A C37A	0.04
G2C C31A G40U	0.08
G2C C31A U34A	0.03
G2C C31G C45U	0.04
G2C C31G G33C	0.01
G2C C31G G35A	0.21
G2C C31G U32G G35U	0.04
G2C C31U C42G U43A	0.02
G2C C31U C45A	0.03
G2C C31U G33A	0.01
G2C C31U G35U G40C	0.02
G2C C37G A41G	0.01
G2C C37G C46A	0.01
G2C C37U G40A	0.42
G2C C42A U43G	0.01
G2C G5A A6C A41G	0.05
G2C G5A A6C U32G	0.02
G2C G5A A25C A26C	0.03
G2C G5A A41G	0.05
G2C G5A C8G U34C	0.04
G2C G5A C10A G17U U34C	0.01
G2C G5A C13G A25C U34A	0.02
G2C G5A C18U U38G	0.02
G2C G5A C23A G33C	0.09

Variant	self-cleavage
G2C G5A C46A	0.04
G2C G5A G17C G19U	0.02
G2C G5A G22A G27U C42G	0.01
G2C G5A G30U	0
G2C G5A G30U C31A A41C C42U	0.04
G2C G5A G35A C42G	0.03
G2C G5A U9G A11C A39U U43G	0
G2C G5C A39U	0.01
G2C G5C A41U	0.05
G2C G5C C8U	0.03
G2C G5C C10G A24C G35C G40A	0.01
G2C G5C G7U A25G C37U	0.03
G2C G5C G22U A24U A39U G44U	0.02
G2C G5C G33U U34C	0.03
G2C G5C U9G C31G	0.05
G2C G5U A12U G22U A26U G40C A41U	0.01
G2C G5U C10A A14U G36A G40C	0.01
G2C G5U C15U C31U	0.04
G2C G5U C18G G29U C37U	0.01
G2C G5U C23U G40A	0.04
G2C G5U G7A C10U G17A	0.03
G2C G5U G19C G33U C46A	0.01
G2C G5U G27A	0.02
G2C G5U G36U	0.03

Variant	self-cleavage
G2C G5U U9C A26G	0.02
G2C G5U U32A C45U	0.01
G2C G5U U32G	0.04
G2C G7A A11C A12G C13A U28G	0.04
G2C G7A A14C A26C G36A	0.32
G2C G7A A16G C18G G44A	0.09
G2C G7A C8A A12G A39C C42A	0.08
G2C G7A C10U	0.02
G2C G7A C10U C18A U43A	0.02
G2C G7A G19C	0.11
G2C G7A U9G A25C	0.03
G2C G7A U32G	0.08
G2C G7C A12U G29C A41U C42U	0.11
G2C G7C A16G C31A U32A	0.04
G2C G7C A25C A39G	0.16
G2C G7C C8A G44A	0.05
G2C G7C C8U C13A G17U G19A A25G U43A	0.02
G2C G7C C10A A12G U28A	0.02
G2C G7C C10U G29U U34A	0.07
G2C G7C G17C G19C	0
G2C G7C U9C	0.01
G2C G7C U32G	0.03
G2C G7U A11G U20C A41G C46A	0.07
G2C G7U A12U G30U A41C	0.11

Variant	self-cleavage
G2C G7U A14G G35U	0.7
G2C G7U A16C C18A U20A C23U A26U C31G	0
G2C G7U A24G	0.21
G2C G7U A26G U28C	0.1
G2C G7U C10A C15A C23G	0.02
G2C G7U C31A	0.08
G2C G7U U9C G35C	0.06
G2C G7U U20A	0.18
G2C G17A A26U C37U C45A C46A	0.02
G2C G17A C31A G44C	0.02
G2C G17A G19A G36U	0.12
G2C G17A G33C	0.02
G2C G17A G35A A41G	0
G2C G17C A24C	0.12
G2C G17C C31A	0.25
G2C G17C C42A C45G	0.05
G2C G17C G22U G33A A39G	0.07
G2C G17C G36A	0.32
G2C G17C U28C	0.12
G2C G17U G22U G29U G30C C37A	0.09
G2C G17U G36A A39U C46U	0.19
G2C G17U G36C C37A C45G	0.03
G2C G19A A26G	0.29
G2C G19A C45G C46U	0.09

Variant	self-cleavage
G2C G19A G22A	0.63
G2C G19A G22U G44C	0.14
G2C G19A G29A A39G	0.02
G2C G19A G33C G35U C45G	0.03
G2C G19A U20A A26U G30A G36U	0.24
G2C G19A U38C	0.22
G2C G19C A24C G44U	0.1
G2C G19C A24G U38G	0.01
G2C G19C G21A C23U C37G	0.01
G2C G19C G22U	0.04
G2C G19U G29U	0.16
G2C G19U G35U G40C U43A	0
G2C G19U G40A U43G C46A	0.01
G2C G19U U43C	0.05
G2C G21A A24C	0.15
G2C G21A A25C G30C G35C	0.08
G2C G21A G22A A24G C31A	0.23
G2C G21A G22A C42U C45A	0.1
G2C G21A U28G	0.04
G2C G21C C42G	0.01
G2C G21C G29C	0.11
G2C G21U A24U A39U	0.28
G2C G21U A41G	0.24
G2C G21U C31U	0.08

Variant	self-cleavage
G2C G21U C37A	0.17
G2C G21U C42G C45G	0.16
G2C G21U G27A U28G G29U	0.08
G2C G21U G29A U34C	0.12
G2C G21U G33U A39C	0.06
G2C G21U G35U G36C A39C C46U	0.06
G2C G21U G36C	0.04
G2C G21U U28G U34C	0.11
G2C G22A C23A	0.2
G2C G22A C31U	0.03
G2C G22C A26C A41G	0.02
G2C G22C C31A	0.18
G2C G22C U28C G29C	0.11
G2C G22U A24U	0
G2C G22U G27C C37A	0.01
G2C G22U G29C G30U	0.04
G2C G22U G33U	0.05
G2C G27A G30A	0.08
G2C G27A U43C	0.01
G2C G27C A39C	0.01
G2C G27C G29C	0.16
G2C G27C G30A	0.27
G2C G27U C45U	0.15
